Measured values reported in the RNAGym collection of RNA variant scans (doi:10.1073/pnas.2313332121).
Variants at the background level are over-represented here.

B1: TPR 5TU (parent)
chain: GGAUCUUCUCGAUCUAACAAAAAAGACAAAUCUGCCACAAAGCUUGAGAGCAUCUUCGGAUGCAGAGGCGGCAGCCUUCGGUGGCGCGAUAGCGCCAACGUUCUCAACUAUGACACGCAAAACGCGUGCUCCGUUGAAUGGAGUUUAUCAUG

Variants of: B1
Assay: polymerase ribozyme fitness, log enrichment relative to wild type (log ratio); higher = more active; in vitro selection for triplet polymerase activity
Summary of the method: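 Only genotypes with ≥10 input reads and ≥1 read per output were kept after Illumina sequencing of input and output libraries. These libraries were PCR-built, transcribed mutants of each subunit of a heterodimeric triplet polymerase ribozyme, each put through one triplicate in vitro selection round with frozen incubation at −7 °C, gel excision of extended constructs, streptavidin-bead capture and RT-PCR. Fitness is a logarithmic ratio of genotype enrichment to wild-type enrichment, from inverse-variance-weighted replicate averages, with the logarithm in base 2.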

Going from GGAUCUUCUCGAUCUUACAAAAAAGACAAAUCUGCCACAAAGCUUGAGAGCAUCUUCGGAUGCAGAGGCGGCAGCCUUCGGUGGCGCGAUAGCGCCAACGUUCUCAACUAUGACACGCAAAACGCGUGCUCCCUUGAAUGGAGUUAAUCAUG [A16U G133C U146A] to GGAUCUUCUCGAUCUUACAAAAAAGACAAACUUGCCACAAAGCUUGAGAGUAUCUUCGGAUGCAGAGGCGGCAGCCCUCGGUGGCGGGAUAGCGCCAACGUUCUCAACUAUGAGACGCAAAACGCGUGCUCCGUUGAAUGGAGUUUAUCAUG [A16U U31C C32U C51U U77C C87G C114G], the “polymerase ribozyme fitness (log ratio)” value falls from -3.79 to at most -4.2.

GGAUCUUCUCGAUCUUACAAAAAAGACAAAUCUGCCACAAAGCAAGAGAGCAUCUUCGGAUGCAGAGGCGGCAGCUUUCGGUGGCGCGAUAGCGCCAACGUUCUCAACUAUGACACGCAAAACGCGUGCUCCGUUGAAUGGUGUUUAUCAUG [A16U U44A U45A C76U A142U] and GGAUCUUCUCGAUCUUACAAAAAAGACAAAUCUGCCACAAAGCUAGAGAGCAUCUUCGGAUGCAGAGGCGGCAGCCUUCGGUGGAGCGAUAGCGCCAACGUUCUCAACUAUGACACGCAAAACGCGUGCUCCGUUGAAUGGAGUUUGUCAUG [A16U U45A C85A A147G] cannot be ordered by “polymerase ribozyme fitness (log ratio)” value: at most -4.2 for the first, at most -4.2 for the second.

GGAUCUUCUCGAUCUUACAAAAAAGACAAAUCUGCCACAAAGCUUGAGAGCAACUUCGGAUGCAGAGGCGGCAGCCUUCGGUGGCGAGAUAGCGCCAACGUUCUCAACUAUGACACGCAAAACGCGUGCUCCGUUGAAUGGAGUUUAUCAUG [A16U U53A C87A] and GGAUCUUCUCGAUCUUACAAAAAAGACAAAUCUGCCACAAAGCUUGAGAGCAUCUACGGAUGCAGAGGCGGCAGCCUUUGGUGACGCGAUAGCGCCAACGUUCUCAAGUAUGACACGGAAAACGCGUGCUCCGUUGAACGGAGUUUAUCAUG [A16U U56A C79U G84A C108G C118G U139C] cannot be ordered by “polymerase ribozyme fitness (log ratio)” value: at most -4.2 for the first, at most -4.2 for the second.

Going from GGAUCUUCUCGAUCUUACAAAAAAGACAAAUCUGCCACAAAGCUUGAGAGCAUCUACGGAUACAGAGGCGGCAGCCUUCGGGGGUGCGAUAGCGCCAACGUUCUCAACUAUGACACGCAAAACGCGUGCUCCGUUGAAUGGGGUUUAUCAUG [A16U U56A G62A U82G C85U A142G] to GGAUCUUCUCGAUCUUACAAAAAAGACAAAUCUGCCACAAAGCUUGAGAGCAUCUUCGGAAGCAGAGGCGGCAGCCUUCGGUGGCGGGAUAGCGCAAACGUUCUCAACUAUGACACGCAAAACACUUGCUCCGUUGAAUGGAGAUUAUCAUG [A16U U61A C87G C96A G124A G126U U144A], the “polymerase ribozyme fitness (log ratio)” value falls from -4.16 to at most -4.2.

First: GGAUCUUCUCGAUCUUACAAAAAAGACAAAUCUGCCACAAAGCUUGAGAGCAUCUUCGGAUGCAGAGGCGGCAGCCUUCGGUGGCGCGAUAGCGCCAACGUUCUCAACUAUGACACGCAAAACGCGUGCUCCGUUGAAGUGAGUUUAUCAUG [A16U U139G G140U]
Second: GGAUCUUCUCGAUCUACCCAAAAAGACAAAUCUGCCACAAAGCUUGAGAGCAUCUUCGGAUGCAGAGGCGGCGGCCUUCGGUGGCGCGAUAGCGCUAACGUUCUCAACUAUGACACGCAAAAUGGGUGCUCCGUUGAAUGGAGUUUAUCAUG [A17C A19C A73G C96U C123U C125G]
The “polymerase ribozyme fitness (log ratio)” value of the first is lower: at most -4.2 for the first, -3.23 for the second.

First: GGAUCUUCUCGAUCUACCUCAAAAGACAUAUCUGCCACAAAGCUUGCGAGUAUCUUCGGAUGCAGAGGCGGCAGCCCUCGGUGGGGCGAUAGCGCCAACGUUCUCAACUAUGAGACGCAAACCGCGUGCUCCGUUGAAUGGAGUUUAUCAUG [A17C A19U A20C A29U A47C C51U U77C C85G C114G A122C]
Second: GGAUCUUCUCGAUCUACCACAAAAGACAAAUCUGCCACAAAGCUUGAGAGCAGCUUCGGAUGCAGAGGCGGCAGCCUUCGGUGACGCGAUAGCGCCAACGUUCUCAACUAUGACACGCAAAACGCGUGCUCCGUUGAAUGGAGUUUAUCAUG [A17C A20C U53G G84A]
The “polymerase ribozyme fitness (log ratio)” value of the first is lower: at most -4.2 for the first, -2.28 for the second.

Compared with GGAUCUUCUCGAUCUACCAUAAAAGACAAAUCUGCCUCAAAGCUUGAGAGCAUCGUCGGAUGCAGAGGCGUCAGCCUUCGGUUGCGCGUUAGCGCCAACGUUCUCAACUAUGACACGCAAAACGCGUGCUCCGUUGAAUGGCGUUUAUCAUG [A17C A20U A37U U55G G71U G83U A89U A142C], GGAUCUUCUCGAUCUACCAAGAAAGACAAAUCUGCCACAUAGCUUGAGAGCAUCUUCGGAUGCAGAGGCGGCAGCCUUCGGUGGCUCGAUAGCGCCAACGUUCUCAACUAUGACACGCAAAUCGCGUGCUCCGUUGAAUGGAGUUUAUCAUG [A17C A21G A40U G86U A122U] is higher in “polymerase ribozyme fitness (log ratio)” value: at most -4.2 for the first, -1.48 for the second.

GGAUCUUCUCGAUCUACCAAUAAAGACGAAUCUGCCACAAAGCUUGAGAGCAUCUUAGGAUGCAGGGGCGGCACCCUUCGGUGGCGCGAUAGCGCCAACGUUCUCCACUAUGACACGCAAAACGCGUGCUCCGUUGAAUGGAGUUUAUCAUG [A17C A21U A28G C57A A66G G74C A106C] and GGAUCUUCUCGAUCUACCAAUAAAGACAAAUCUGCCACAAAGCUUGAGAGUAUCUUCGCAUGCAGAGGCGGCAGCCUUCGGUGGCGCGAUAGCGUCAACGUUCUCUACUAUGACACGCAAAACGCGUGCUCCGUUCAAUGGAGUUUAUCAGG [A17C A21U C51U G59C C95U A106U G136C U151G] cannot be ordered by “polymerase ribozyme fitness (log ratio)” value: at most -4.2 for the first, at most -4.2 for the second.

GGAUCUUCUCGAUCUACCAAACAAGACAAAUCUGCCACAAACCUUGAGAGCAUCUUCGGAUGCAGAGGCGGCAGCCUUCGGUGGCGCGAUUGCGACAACGUUCUCAACUAUGACACGCAAAACGCGGGCUCCGUUGAAUGGAGUUUAUCAUG [A17C A22C G42C A91U C95A U127G] and GGAUCUUCUCGAUCUACCAAACAAGACAAAUCUGCCACAAAGCUUGAGAGCAUCUUCGAAUGCAGAGGCGUCAGCCUUCGGUCGCGCGAUAGCGCCAACGUUCUCAACUAUGACACGCAAAACGCGUGCUCAGUUGAAUGGAGUUUAUCAUG [A17C A22C G59A G71U G83C C132A] cannot be ordered by “polymerase ribozyme fitness (log ratio)” value: at most -4.2 for the first, at most -4.2 for the second.

In the case of GGAUCUUCUCGAUCUACCAAAGAAGACAAAUCUGCCACAAAACUUGAGGGCAUCUGCGGAUGCGGAGGCGGCAGCCUUCGGUGGAGCGAGAGCGCCAACGUUCUCAACUAUGACACGCAAAACGCGUGCUCCGUUGAAUGGAGUUUAUCAUG [A17C A22G G42A A49G U56G A64G C85A U90G], the “polymerase ribozyme fitness (log ratio)” value is reported as at most -4.2.
